# Values quoted from earlier work in patent US6010890A, “Method for viral inactivation and compositions for use in same” (New York Blood Center, Inc., priority 1997, dated 2000).
# System: HIV
# Conditions: cited from earlier work
smiles,measurement,value
"CN(C)CCC[Si](C)(C)O[Si]1(O)n2c3c4ccccc4c2N=C2N=C(N=c4c5ccccc5c(n41)=NC1=NC(=N3)c3ccccc31)c1ccccc12 (stereo not shown) [Pc4, hydroxysiloxydimethylpropyl-N-dimethyl silicon phthalocyanine]","inactivation of HIV in its multiple forms, among phthalocyanines",most effective
